Measurements taken from the RNAGym collection of RNA variant scans (doi:10.7554/elife.90254).
The source gives no read counts; variants with many changes may rest on few reads.

B1: LINE1-mini (parent)
chain: GGCAGAGCUCAACACAGCGUGGCAAAGUGGCUGUGGCUAGACUGCC

Variants of: B1
Test: self-cleavage, relative activity (ratio to wild type); higher = more cleavage; in vitro, sequencing; the parent is a self-cleaving ribozyme

Variant | self-cleavage
A6U A16C A26C | 0
A6U C13U C15A U43C G44A C46A | 0.03
A6U A12C A25C | 0.03
A6U C8U A11G G27U | 0.01
A6G C15U U34C A41G | 0.13
A6U C15A A24U G33U | 1.08
A6G G17U C18U | 0.02
A6G C15A G22A A25G U28G U38G C45A | 0
A6G G27U U28C | 0.11
A6G U9A A11C U20C G35U | 0.01
A6G C23U G33U | 0.38
A6U C10A C15A C18A G29U C31U U38A | 0.02
A6G G7C G40U | 0.14
A6G U9G G21A G22A A24G | 0.06
A6U C10G A16G C37A G40A G44C | 0.02
A6U A24G U34G | 0.15
A6U A14G G33U G40U | 0.14
A6U A25G G27C G36A G40U U43G | 0.04
A6G C31G C37A A39U | 0.07
A6G G35U U43G | 0.03
A6G U9C G17C G19A A26C | 0.01

Variant | self-cleavage
A6G C15U U32C G40A | 0.03
A6U A24G C45G C46A | 0.6
A6G C15G G17C G19C A39G G44A | 0.01
A6U C13U G30U | 0.08
A6G G21U C46U | 0.05
A6G C45U C46A | 0.15
A6U A14C A39G | 0.02
A6G G19A U20G C31A C45A | 0.1
A6G C31U C37U | 0.04
A6U A16U A41U | 0.16
A6G U9G U28A G44A | 0.04
A6U C8A G36U | 0.14
A6G G21A U38C G44A | 0.07
A6G C18U U38G A39C G40U A41C | 0.07
A6U A24G U38A C42U | 0.12
A6U C13A G44U C46U | 0.2
A6U C18U U34A | 0.05
A6G U9C C10G A16U U20A G22U U34G | 0.01
A6U C15U U32C U34G | 0.04
A6U C13A A14G | 0.22
A6G G36A C46U | 0.07

Variant | self-cleavage
A6G C13U G21A C31U G35A | 0.02
A6G G30C C45G | 0.06
A6U C8A A12G G29C C37U | 0.05
A6U C13U A24U G27C G33A U34C | 0.29
A6U A14G U34G G36C G44A | 0.03
A6G G35A A41U | 0.03
A6G G17A G35A C46U | 0.04
A6G G7A A12C U28G G40A | 0
A6G U20G G44U | 0.05
A6U C8G G21A A24G | 0.36
A6G G35A G36C U38A | 0.04
A6U A14C G21A G29U G33C U43C | 0.03
A6G G21U G22C C23A | 0.52
A6G U28C A39U | 0.07
A6G G21U G29U G40A | 0.05
A6U A14C G17U G19C C23A C42G | 0.08
A6G C18A G21U G40A | 0.01
A6U C8U U20A G33U | 0.03
A6U A25G C45U C46A | 0.01
A6G G7U C10U G19A A25U A39U A41G C46A | 0.03
A6G G7A G40C | 0.12

Variant | self-cleavage
A6U C13A A14U G30C U38A | 0.15
A6U C10A C42U | 0.02
A6U C8A C13A | 0.68
A6U A11C C13U A26C U28C G40U | 0.04
A6G G7U C13U | 0.04
A6G U9C A14U | 0.03
A6U A14G G36U | 0.17
A6U A14U G35A | 0.37
A6U A25G G30U G35U C37G | 0.07
A6U C8U G17U U32A | 0.06
A6G G7C U32A | 0.06
A6G U9C C10U C13G G22U G27U G29U | 0.01
A6U C8G C42A U43C | 0.02
A6U C8A A16C A26G G27A G35A C46A | 0.13
A6U A11U C23U G33U G40U | 0.04
A6U C10A G19A C37A | 0.02
A6G U32G G36A | 0.18
A6G G7U A12C G19U G44C | 0.02
A6U A11U C13A U28A | 0.01
A6G C31U C46U | 0.01
A6G U32A C37G | 0.05
